Measurements: PubChem BioAssay AID624202 (National Center for Advancing Translational Sciences (NCATS), 2012)
Among all 380,000 compounds or so, about 4,000 (1.1%) were called active. Inconclusive results, whose numbers are uncertain, are shown with a selection of clear calls. Calls follow the shape of the dose curve; as a rule, active = well fitted activation curve with a large enough effect; inconclusive = small, poorly fitted or top-dose-only effect; inactive = no such curve, though single readings can be large or run the other way. A potency beside an inconclusive call is a rough fit, not a confirmed value.

test: qHTS Assay to Identify Small Molecule Activators of BRCA1 Expression; details: MCF7-BRCA1-FFLuc reporter, luminescence, 48 h; activation: at 46.1 µM (top of the series), scaled: vehicle 0%, 10 µM genistein 100% unless noted; also: nearly all actives have a fitted effect of over 80% in size
Summary of the method: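 MCF7-BRCA1-FFLuc, 2000 cells/well; 2 h attach, 37 °C/5% CO2; compound 48 h; luciferase substrate 15 min; luminescence end-point. Norm. to genistein 10 microM max activation and DMSO; concentration-response curves fitted.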
Potency is read from the fitted curve at half-maximal effect; tags tell the direction and shape of the fitted curve.

Compound	Potency	activation
Cc1ccc(C(=O)NN=Cc2ccc3c(c2)OCO3)cc1	inconclusive: 4.47 µM [activator, full curve, poor fit]	
Cc1nc(NC(=O)c2cccc(Cl)c2)sc1C(=O)N1CCCCC1	inconclusive: 7.94 µM [activator, partial curve, poor fit]	
Cc1cccc(/C(N)=N/OC(=O)c2ccc3c(c2)OCO3)c1	inconclusive: 1.58 µM [activator, full curve, poor fit]	
O=C(NC1CCc2ccccc21)c1cc(COc2cncc(Cl)c2)on1 (stereo unspecified)		inactive: 83.7%
Cn1c2ccc(F)cc2c2nnc(SCC(=O)Nc3cccc(O)c3)nc21		inactive: 32.4%
O=C1NC[C@H](CCCCN2C[C@H](Cc3ccc(O)cc3)N(CCc3ccc(O)cc3)C(=O)C2=O)N(CCc2ccc(O)cc2)C1=O		inactive: 29.9%
CCSc1nsc(NC(=O)Nc2ccccc2OC)n1	inconclusive: 3.55 µM [activator, partial curve, poor fit]	
CC1CCN(C(=O)/C(=C/c2ccccc2Cl)c2ccccc2)CC1		inactive: -47.2%
CCCc1cc(C(=O)Nc2cc(C)on2)no1	inconclusive: 25.1 µM [activator, single point]	
Cc1ccc(N=Cc2cc3c(cc2O)OC(N)=C(C#N)C3c2ccccc2)cc1 (stereo unspecified)		inactive: -91%
O=C(CC1C(=O)NCCN1Cc1ccc(F)cc1)NC1CCCCCCC1 (stereo unspecified)		inactive: -19.1%
Cc1cnc(C(=O)OCC(=O)c2csc(N3CCCCC3)n2)cn1	inconclusive: 0.891 µM [activator, single point]	
C/C(CCc1ccccc1)=N\NC(=O)c1ccccc1[N+](=O)[O-]		inactive: -14.2%
c1ccc(-c2ccc3[nH]ccc3c2)cc1	inconclusive: 15.8 µM [activator, partial curve, poor fit]	
FC(F)(F)c1ccnc(Oc2ccc(C3=NCCS3)cc2)c1	inconclusive: 2.51 µM [activator, partial curve, poor fit]	
Cc1cc(N/N=C/c2ccccc2)nc(N)n1	active: 12.6 µM	
Cc1ccc(O)c(C(=O)c2cc(C#N)c(=O)n(-c3c(C)n(C)n(-c4ccccc4)c3=O)c2)c1		inactive: -12%
COC(=O)c1ccc(Cn2nc(C)cc2C)cc1	inconclusive: 20 µM [activator, partial curve, poor fit]	
CN(CCc1ccccn1)C(=O)CCc1nnc(CCCc2ccccc2)o1	active: 12.6 µM	
CC(=O)c1sc(NC(=O)c2ccc3c(c2)OCO3)nc1C	active: 2.51 µM	
O=C(Nc1nc2c(F)cc(F)cc2s1)c1ccco1	inconclusive: 1.26 µM [activator, full curve, poor fit]	
COc1ccc(C)cc1NC(=O)C1CC(=O)N(CCc2ccccc2)C1 (stereo unspecified)		inactive: 0%
COc1ccc(/C=N/Nc2nc3ccccc3c(=O)n2-c2ccccc2)cc1OC	inconclusive: 7.08 µM [activator, partial curve, poor fit]	
O=c1[nH]cc(C#Cc2ccccc2)c2ncncc12	inconclusive: 11.2 µM [activator, partial curve, poor fit]	
CCOC(=O)c1[nH]c(C)c(C(=O)OCc2c(C)noc2C)c1C		inactive: -31.6%
Cn1cccc1/C=C1\SC(=Nc2ccccc2)NC1=O		inactive: -7.6%

Compound	Potency	activation
Cc1ccsc1/C=C1\CCC(C2CCCC2)C1=O (stereo unspecified)	inconclusive: 2.82 µM [activator, full curve, poor fit]	
CCCCOc1ccc(CN(CCO)CCO)cc1[N+](=O)[O-]	inconclusive: 12.6 µM [activator, partial curve, poor fit]	
COc1ccc(N=Nc2ccc3ccccc3c2)c(O)c1	inconclusive: 31.6 µM [activator, single point]	
O=C(Nc1ccccc1)c1ccc2c(c1)OCCO2	inconclusive: 7.94 µM [activator, partial curve, poor fit]	
CCc1ccc(CNc2ccc3c(c2)ncn3C)cc1	inconclusive: 1.58 µM [activator, partial curve, poor fit]	
CCOC(=O)C1(Cc2cccc(OC)c2)CCCN(C(=O)CSC)C1 (stereo unspecified)	inconclusive: 10 µM [activator, partial curve, poor fit]	
CCn1c(SCC(=O)c2ccc(Cl)cc2)nnc1C(C)C	inconclusive: 20 µM [activator, partial curve, poor fit]	
CCN=C1S/C(=C\c2ccc(-c3cccc(C(=O)O)c3)o2)C(=O)N1CC	inconclusive: 0.562 µM [activator, full curve, poor fit]	
Clc1ccc(-c2cn3c(n2)CCC3)cc1	inconclusive: 2.24 µM [activator, full curve, poor fit]	
COc1ccc(C(=O)NC(=S)Nc2ccccc2F)cc1	inconclusive: 15.8 µM [activator, partial curve, poor fit]	
COc1cc(C(C)=O)ccc1Oc1ncnc2c1cnn2-c1ccccc1		inactive: -6.18%
Cn1cc(CCNC(=O)c2ccc3nc(Cc4ccccc4F)oc3c2)cn1	active: 2.51 µM	
CN(C)c1ccc(C(=O)c2ccc(O)cc2O)cc1	inconclusive: 7.94 µM [activator, partial curve, poor fit]	
N#CC1=C2SCN(c3ccccc3)CN2C(=O)CC1c1cccs1 (stereo unspecified)		inactive: -22.5%
CCC(C)NC(=O)Nc1ccc(F)c(Cl)c1 (stereo unspecified)	inconclusive: 11.2 µM [activator, partial curve, poor fit]	
O=C(Nc1cccc(F)c1)c1ccc2c(c1)OCCO2	inconclusive: 2 µM [activator, full curve, poor fit]	
COc1ccccc1OCC(=O)O/N=C(\N)c1ccccn1	inconclusive: 2.82 µM [activator, full curve, poor fit]	
CC1(C)CC(=O)c2cc(C(=O)NCCc3ccccc3)c(=O)[nH]c2C1		inactive: 61%
COc1cccc(NC(=O)Nc2ccc3nsnc3c2)c1	active: 7.08 µM	
C=CCn1c(NCc2c[nH]c3ccccc23)nc2ccccc21	inconclusive: 10 µM [activator, partial curve, poor fit]	
CC(C)c1ccc(CNc2ncccn2)cc1	active: 11.2 µM	
Cc1ccc2cc(C#N)c(SCC(=O)N3CCCC3)nc2c1	inconclusive: 11.2 µM [activator, partial curve, poor fit]	
Nc1ccc(-c2nnc(-c3ccc(N)cc3)o2)cc1	active: 5.62 µM	
O=C(CCNC(=O)c1ccc(Cl)cc1)NCCC1=CCCCC1	active: 7.94 µM	
Cc1cc(C(=O)COC(=O)c2ccc(O)cc2)c(C)n1CC(F)(F)F	active: 7.94 µM	
Cc1cccc(NC(=O)Cc2ccc(-c3ccccc3)cc2)n1		inactive: 32%

Compound	Potency	activation
O=C(c1cc2c(s1)-c1ccccc1OC2)N1CCCC1	inconclusive: 2.51 µM [activator, full curve, poor fit]	
COc1ccc(NC(=O)CN(C)C(=O)CNC(=O)c2sc3ccccc3c2Cl)cc1	active: 7.94 µM	
COc1ccc(C(CNC(=O)c2oc3ccc(C)cc3c2C)N2CCCCC2)cc1 (stereo unspecified)		inactive: -34.5%
Fc1ccc(CSc2nnc(-c3ccccn3)o2)cc1	active: 3.98 µM	
COc1ccc(NC(=O)COC(=O)Cc2c(F)cccc2Cl)cc1		inactive: -0.551%
O=C1OC(c2ccccc2)=N/C1=C\N1CCCCC1	active: 7.94 µM	
CCN(Cc1ccccc1)C(=O)CCCOc1ccccc1	inconclusive: 11.2 µM [activator, partial curve, poor fit]	
Cc1cn([C@H]2C[C@H](O)[C@@H](CNC(=O)[C@H](N)Cc3cscn3)O2)c(=O)[nH]c1=O		inactive: 17.1%
COC(=O)/C(=C\C(=O)c1ccccc1)Nc1cccc(C(F)(F)F)c1	active: 10 µM	
Cc1ccc(OCCCSc2n[nH]c(N)n2)cc1	inconclusive: 14.1 µM [activator, partial curve, poor fit]	
CCCCc1nc2cc(C(=O)NCc3cc(C)n(C)n3)ccc2o1	inconclusive: 22.4 µM [activator, single point]	
COc1ccc(N2CC(C(=O)Nc3nnc(SCC(=O)NCc4ccco4)s3)CC2=O)cc1 (stereo unspecified)		inactive: -8.14%
COc1ccccc1N1CCN(/N=C\c2ccccc2)CC1	inconclusive: 14.1 µM [activator, single point]	
Oc1ccc(-c2nccc(-c3ccccn3)n2)cc1	inconclusive: 7.94 µM [activator, partial curve, poor fit]	
COc1ccc2c(c1)CCc1c(C(=O)N(C)c3ccccc3)noc1-2	inconclusive: 11.2 µM [activator, partial curve, poor fit]	
Cc1cc(C)c2nc(NC(=O)C3CCCO3)sc2c1 (stereo unspecified)	active: 15.8 µM	
CC(=O)N1CCN(C(=O)c2cc(-c3ccc(C)o3)nc3ccccc23)CC1	inconclusive: 8.91 µM [activator, partial curve, poor fit]	
CC(C)c1cc(C(=O)NC2CCCCC2)no1	active: 8.91 µM	
c1ccc(CCNc2ccc3c(c2)Cc2ccccc2-3)nc1	inconclusive: 1.78 µM [activator, full curve, poor fit]	
CCOCC(=O)NC1CCc2cc(OC)c(OC)c(OC)c2-c2ccc(SC)c(=O)cc21 (stereo unspecified)		inconclusive: -77.9% [activator]
COc1ccc(C(CCN2CCCC(C)C2)c2c(OC)cc(OC)c3c(C)cc(=O)oc23)cc1 (stereo unspecified)		inactive: -11.7%
Cn1c(C(=O)N2COCC2(C)C)cc2c(=O)n3ccccc3nc21	inconclusive: 10 µM [activator, partial curve, poor fit]	
COC(=O)c1sc(-c2ccc(Cl)cc2)cc1N	active: 3.98 µM	
COc1cccc(OCc2cc(C(=O)N(C)Cc3nccn3C)no2)c1	inconclusive: 8.91 µM [activator, partial curve, poor fit]	
